Reference: paper PMC6212790
Some of the results follow. At the low end of the ranking the order means little.

Target: T1, GST-Rok (full length) (UniProt O34857)
T1 sequence: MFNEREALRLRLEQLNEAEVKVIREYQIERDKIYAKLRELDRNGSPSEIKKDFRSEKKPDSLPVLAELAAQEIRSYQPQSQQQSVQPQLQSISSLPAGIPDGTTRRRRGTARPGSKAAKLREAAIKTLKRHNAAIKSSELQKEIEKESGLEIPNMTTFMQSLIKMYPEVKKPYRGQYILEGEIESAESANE
Assay: protein binding microarray;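 further: rank score from −0.5 (least bound) to 0.5 (best bound)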
Details: Rok is a gene silencer of Bacillus subtilis; high values mean tight binding; most listed sequences are background and not binding sites; double strand, one strand shown

Sequence	binding signal
CGGGGGAG	-0.407 E-score
CATAGCAC	-0.15 E-score
ACTATAAC	0.214 E-score
AATAATGT	0.222 E-score
CTAAAATC	0.289 E-score
TTCGCCAA	0.0471 E-score
GCGTTGCC	-0.301 E-score
GATTGCGA	0.0724 E-score
CTGAGGCA	-0.19 E-score
TATTACCA	0.232 E-score
GATTTGAC	-0.0537 E-score
AGTGGGCA	-0.0765 E-score
GCTGAACA	-0.00235 E-score
CAAAGCCA	-0.294 E-score
CCATGGTC	-0.19 E-score
GATCTTCC	-0.105 E-score
AGAGTGTC	-0.116 E-score
GGTTTGTA	0.217 E-score
CGAGGCAG	-0.166 E-score
CCCTAGGA	-0.299 E-score
GGCTATAC	0.027 E-score
GTAAATAC	0.352 E-score

Sequence	binding signal
GCGAAACA	-0.073 E-score
CACTCCTG	-0.271 E-score
ATTCATTG	0.186 E-score
GGTGCCGA	-0.248 E-score
ACATGGAC	-0.0136 E-score
AACTGTCC	0.0205 E-score
AGAGCCTA	-0.00183 E-score
ACAACACT	0.144 E-score
GCCGGATA	0.0651 E-score
GTAGAGTA	0.227 E-score
CTTGCAAG	-0.0195 E-score
ATTCTCCA	0.209 E-score
ATATTCGG	-0.00515 E-score
GCCGACCA	-0.178 E-score
ATGACTCG	0.00282 E-score
ATCTCCTC	-0.0375 E-score
CGCCCAAA	-0.124 E-score
GGGCATTA	-0.3 E-score
ACACGGGC	-0.0912 E-score
GCCTGCGA	-0.168 E-score
GGGCGGCA	-0.295 E-score
GAAGCTAA	0.0533 E-score

Sequence	binding signal
ACCATGCG	-0.0629 E-score
AGAGGCTG	-0.273 E-score
CATGATAC	0.144 E-score
GCGTAGGA	-0.034 E-score
CCTTTTCG	0.147 E-score
CAAACTCG	-0.0411 E-score
ATTTATCA	0.193 E-score
GGATGTCA	-0.148 E-score
GGTGGCTA	0.00926 E-score
CGGCCATA	0.0118 E-score
AACCGGGA	-0.296 E-score
CTTGTGGC	-0.0517 E-score
GATTCGTA	0.0981 E-score
ATGGGGAG	-0.359 E-score
CTATGGGA	-0.103 E-score
AGCCTTTA	-0.0665 E-score
GCGTTGGA	-0.179 E-score
CACATGTA	0.284 E-score
AAGAGACC	-0.105 E-score
ATTTGCAA	0.0712 E-score
GTTTTCAA	0.0595 E-score
ACGTCCCG	-0.0683 E-score

Sequence	binding signal
GGTAAAAC	0.192 E-score
CACGTAAC	0.131 E-score
AGAGTTTC	-0.0683 E-score
TGGATTAA	0.116 E-score
CCCTGTCA	-0.175 E-score
GAGGTGAA	-0.212 E-score
CGGCGTCC	-0.181 E-score
ACGAGGCG	-0.125 E-score
ACGCGCGA	0.0153 E-score
CCCGTAGG	-0.304 E-score
AACCCGGG	-0.226 E-score
AAACAGCT	0.0473 E-score
ATGAAAAA	-0.185 E-score
CCCCGGGA	-0.318 E-score
GGGCAGGA	-0.31 E-score
ACTTGGGG	-0.063 E-score
ACATTCCC	-0.038 E-score
AAGCCTGG	-0.233 E-score
CAAGCAGC	-0.0674 E-score
AGACAAAT	0.0067 E-score
